# Source: ChEMBL document CHEMBL1156829
# Whole data set: some 5,400 compounds, median “IFI” near 2, cut for the highest 2% near 22. The list shows a part of the results.
# Experiment: NOVARTIS: Inhibition Frequency Index (IFI) - the number of HTS assays where a compound showed > 50% inhibition/induction, expressed as a percentage of the number of assays in which the compound was tested.
# Format: functional
row,SMILES,IFI
1,COc1ccc2nc(C)cc(Nc3ccc(Cl)c(Cl)c3)c2c1,11.9%
2,CC1(C)C2C[C@@H](COC(=O)NC(=O)c3ccccc3)[C@]3(C)[C@H](C21)C3(Cl)Cl (stereo partly drawn),0%
3,O=C(Nc1ccccc1)/C(=C\c1ccncc1)NC(=O)c1ccccc1,0%
4,CN(CCCNc1ccnc2cc(Cl)ccc12)C(=O)C(Cl)Cl,3.7%
5,CCOC(=O)c1cn(CC)c2cc(N(C)CCc3ccc(OC)c(OC)c3)c(F)cc2c1=O,4.69%
6,O=C(NN=Cc1cc2ccccc2cc1O)c1cccnc1,7.14%
7,COc1cc2c(cc1/C=C(/C#N)c1cccc(C)c1)OCO2,0%
8,Cc1nc(CC(=O)N2CCCC(CNC(=O)C3(c4ccc(Cl)cc4)CC3)C2)cs1 (stereo not drawn),0%
9,CCCCCCCCCCCC(OC(=O)C(CCCCN(O)C(C)=O)NC(=O)c1coc(-c2ccccc2O)n1)C(C)C(=O)NC1CCCCN(O)C1=O (stereo not drawn),6.9%
10,CCc1cccc2c(C#N)cn(CC(=O)Nc3ccc(OC)cc3)c12,7.69%
11,CN1CCN(c2nc(NN=Cc3cc(Br)c(O)cc3O)nc(Nc3ccc([N+](=O)[O-])cc3)n2)CC1,7.69%
12,COc1ccccc1N1CCN(c2ccc(NC(=O)c3ccc(F)cc3)cc2C(=O)N2CCCC2)CC1,0.917%
13,Brc1ccc(Nc2nc3ccccc3nc2Nc2ccc(Br)cc2)cc1,14.2%
14,CCN(CC)CCCC(C)Nc1ccnc2ccc([N+](=O)[O-])cc12 (stereo not drawn),0%
15,CC(C)C(=O)NC(Nc1ccc([N+](=O)[O-])cc1)C(Cl)(Cl)Cl (stereo not drawn),0%
16,CCC(=O)N1CCc2cc(Br)cc(S(=O)(=O)N3CCN(CC)CC3)c21,0%
17,CN(C)c1ccc(/C=C/C(=O)NC(=O)c2ccccc2O)cc1,10.6%
18,O=c1c(=Cc2ccc(Cl)cc2)sc2nc3ccccc3n12,3.09%
19,CCN(CC)c1ccc(N=Cc2ccc(Sc3nc4ccccc4s3)o2)cc1,9.3%
20,Oc1c2c(nc3cc(-c4ccc(Cl)cc4)nn13)CCCC2,7.14%
21,COc1ccc(CNC(=O)c2ccc3c(c2)N=C(/C=C/c2ccccc2)N(CCN2CCOCC2)C3)cc1,8.54%
22,Cc1cccc(NC(c2ccncc2)c2ccc3cccnc3c2O)n1 (stereo not drawn),7.14%
23,COc1ccc(Nc2nc(NCc3ccccc3)c3ccccc3n2)cc1,7.3%
24,Cc1ccc(N2C(N)=NC(N)=NC2(C)C)cc1,5.3%
25,COC(=O)C1C(=O)C2=C(CC1C)NC(=O)CC2c1ccc(Cl)cc1Cl (stereo not drawn),0%
26,COc1ccc2c(C)nc(NC(=N)N)nc2c1,0%
27,CCOc1ccccc1-n1c(SCC(=O)c2ccc(Cl)cc2)nc2[nH]ncc2c1=O,1.16%
28,COCC(=O)NCc1ccc(OC2CCN(CC(c3ccccc3)c3ccccc3)CC2)cc1,1.41%
